{
  "source": "PubChem BioAssay (NCATS)",
  "note": "The inconclusive results got no clear call from the source; some entries with a clear call stand among them for comparison. Potencies beside an inconclusive call are fits to weak or partial responses and may not hold up. Calls of active or inactive are those of the source. Calls come from the whole dose curve; as a rule, active = well fitted cell-killing curve with a large enough effect; inconclusive = small, poorly fitted or top-dose-only effect, or effect the other way; inactive = flat fitted curve, though single readings scatter. % is set by controls: 0 for no effect and ±100 for the full control effect; potency is the fitted concentration of half-maximal effect; tags give direction and shape of the fitted curve.",
  "data": [
    {"test_system": "SKOV3", "assay": "Primary qHTS to identify gynecologic anti-cancer compounds using libraries of approved drugs and bioactive compounds (AID 1345084); note: nearly all actives have a fitted effect of over 55% in size", "conditions": "Gynecologic cancer cell panel viability, ATPlite luminescence, 48 h; series mostly up to 57.5 µM; activity change, negative = cytotoxicity: at the top concentration", "procedure,_shortened": "(§1)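 Luminescence from the ATPlite ATP-monitoring reagent indicates viable cell number; lower signal means cytotoxicity. Cells received compound 16 h after seeding and were exposed for 48 h across five concentrations.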", "values": [
      {"smiles": "CN(C)c1cc2c(cc1Sc1nc3c(N)nccc3n1CCNCC(C)(C)C)OCO2", "Potency": "active: 5.62 µM"},
      {"smiles": "Oc1ccc(Cl)cc1", "Potency": "inconclusive: 0.631 µM [cytotoxic, partial curve, poor fit]"},
      {"smiles": "C#CC(O)(C=CCl)CC", "note": "(stereo unspecified)", "activity change, negative = cytotoxicity": "inactive: -17.4%"},
      {"smiles": "O=C1CN=C(c2ccccc2Cl)c2cc(Br)ccc2N1", "Potency": "inconclusive: 39.8 µM [cytotoxic, single point]"}
    ]},
    {"test_system": "Tov-21-G", "assay": "Primary qHTS to identify gynecologic anti-cancer compounds using libraries of approved drugs and bioactive compounds (AID 1345084); note: nearly all actives have a fitted effect of over 55% in size", "conditions": "Gynecologic cancer cell panel viability, ATPlite luminescence, 48 h; series mostly up to 57.5 µM; activity change, negative = cytotoxicity: at the top concentration", "procedure,_shortened": "as §1", "values": [
      {"smiles": "c1ccc2c(c1)Nc1ccccc1S2", "Potency": "inactive"},
      {"smiles": "CN1CC[C@]23c4c5ccc(O)c4O[C@H]2[C@@H](O)C=C[C@H]3[C@H]1C5", "activity change, negative = cytotoxicity": "inactive: -12.3% [at 116 µM]"},
      {"smiles": "O=C(CCl)c1ccc(Cl)cc1Cl", "activity change, negative = cytotoxicity": "inactive: 2.22%"},
      {"smiles": "N#Cc1ccc(N2CCN(C(=O)COc3ccc4[nH]cc(CCN)c4c3)CC2)cc1", "Potency": "inconclusive: 35.5 µM [cytotoxic, single point]"},
      {"smiles": "O=S(=O)(c1ccc(Cl)cc1)c1ccc(Cl)cc1", "activity change, negative = cytotoxicity": "inactive: -8.1% [at 116 µM]"},
      {"smiles": "Nc1ccc(Cl)cc1N", "Potency": "inconclusive: 39.8 µM [cytotoxic, partial curve, poor fit]"},
      {"smiles": "CN(C)c1cc2c(cc1Sc1nc3c(N)nccc3n1CCNCC(C)(C)C)OCO2", "Potency": "active: 1.41 µM"}
    ]}
  ]
}
